# ± gives the standard deviation of the averaged measurements. The full ranking holds about 33,000 sequences; the median of “E-score (dimensionless, -0.5 to 0.5)” is about -0.046, and the highest 2% start at about 0.36. The list shows a part of the results.
# Test system: T1, SpTbr T-box DNA-binding domain (GST fusion)
# T1 sequence: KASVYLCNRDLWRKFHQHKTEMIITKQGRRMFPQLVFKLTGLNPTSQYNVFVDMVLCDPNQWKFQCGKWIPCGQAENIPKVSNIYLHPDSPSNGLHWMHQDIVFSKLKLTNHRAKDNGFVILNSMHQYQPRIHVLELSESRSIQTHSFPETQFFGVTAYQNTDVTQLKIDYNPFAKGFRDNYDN
# Assay: PBM E-score of 8-mer (E-score (dimensionless, -0.5 to 0.5)); Tbr is Tbrain of the sea star Patiria miniata (Pm) or the sea urchin Strongylocentrotus purpuratus (Sp); higher = stronger binding preference; most listed sequences are background and not binding sites
# Settings: the construct has about 5 more residues each side
# How it was run: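 Expression of GST-fused Tbr T-box DNA-binding domains, each holding the full T-box plus roughly five flanking residues, was carried out in BL21 E. coli at 20 °C, with purification by glutathione affinity chromatography. Universal Agilent arrays made double-stranded by primer extension were incubated with the protein at 200 nM in PBS (pH 7.5), then scanned and quantified. All ungapped 8-mers were scored from probe intensities, and each received an enrichment E-score from the Universal PBM Analysis Suite, averaged over duplicate arrays.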
row,Sequence,PBM E-score of 8-mer
1,GAACCCAC,-0.249 ± 0.044
2,ATGATACG,-0.0359 ± 0.0093
3,CTCTGGCC,-0.318 ± 0.042
4,GTGACCAA,0.129 ± 0.024
5,ATTGGCTA,-0.118 ± 0.0085
6,GTAACGTA,-0.217 ± 0.024
7,CTTTATCC,-0.201 ± 0.0046
8,CAAGCAAC,-0.0167 ± 0.075
9,ACCGAAGA,-0.00903 ± 0.0076
10,CTCGGCAA,-0.0107 ± 0.054
11,AATTCTAG,-0.227 ± 0.029
12,AATCAATT,0.0832 ± 0.12
13,AGGATACC,-0.292 ± 0.028
14,AGGCACTA,-0.127 ± 0.064
15,AGCTAGCG,0.0935 ± 0.042
16,ATACGTCC,-0.205 ± 0.019
17,AGTTTAGA,-0.123 ± 0.0093
18,AAACACGT,0.258 ± 0.063
19,AGGTGGAA,0.0503 ± 0.028
20,CCTATAAG,0.118 ± 0.016
21,ACAAGTCG,0.218 ± 0.029
22,ACAGATCC,-0.0823 ± 0.011
23,AGCGACCG,-0.0425 ± 0.01
24,AACGGCGG,0.0941 ± 0.035

row,Sequence,PBM E-score of 8-mer
1,CAACAGGG,-0.179 ± 0.012
2,CTTGTTCA,0.0567 ± 0.042
3,ATAACGAA,-0.0167 ± 0.027
4,CCGTACGG,-0.279 ± 0.043
5,ACAGTGGG,0.0359 ± 0.0088
6,AAAGTATA,-0.0349 ± 0.041
7,ACCTCCGC,0.0711 ± 0.017
8,CAGACCAA,-0.0563 ± 0.049
9,CAAGGTTA,-0.114 ± 0.062
10,AATAATTG,-0.0315 ± 0.04
11,CAAGCACA,0.125 ± 0.058
12,GTCGTGAA,0.3 ± 0.034
13,TGCCAGCA,0.0813 ± 0.012
14,GCGGTACC,0.00526 ± 0.018
15,GAATTAGC,0.0795 ± 0.01
16,GAGATCAC,0.236 ± 0.038
17,AAAGTAAT,-0.288 ± 0.016
18,AGAAGTAC,-0.21 ± 0.009
19,AACACACA,0.276 ± 0.0056
20,TGCGCAAA,0.173 ± 0.027
21,TCACAGCA,0.224 ± 0.044
22,CCGATAGA,-0.229 ± 0.053
23,CCTTTAGA,-0.292 ± 0.04
24,CAACAACG,0.0673 ± 0.059

row,Sequence,PBM E-score of 8-mer
1,CAGTAAAA,-0.2535 ± 0.0015
2,ATCGTGAA,0.2403 ± 0.0014
3,ACGGTATC,-0.136 ± 0.057
4,AACGGCCC,-0.174 ± 0.044
5,CCAGAAAA,-0.0169 ± 0.024
6,CTAATGAC,0.074 ± 0.033
7,CCGTGGTA,-0.101 ± 0.033
8,CATCATAA,-0.0269 ± 0.00038
9,GCAATAGC,-0.00993 ± 0.042
10,CGCAATGA,-0.126 ± 0.016
11,ATCAGTAA,-0.169 ± 0.066
12,CTTCTTCA,0.0983 ± 0.013
13,GGTCGACC,-0.281 ± 0.009
14,CATGCCCG,0.00914 ± 0.03
15,GCAAAATA,-0.154 ± 0.0035
16,TAAGAATA,-0.0453 ± 0.085
17,ATGCGTCG,0.0377 ± 0.039
18,AGAATAAA,-0.112 ± 0.013
19,ACAGAGTG,0.0268 ± 0.0033
20,AATGATAT,-0.163 ± 0.029
21,GTGCCTAA,0.122 ± 0.027
22,GACGGCTA,-0.166 ± 0.013
23,AGGGACAT,-0.254 ± 0.0042
24,CGTTATGC,-0.147 ± 0.093

row,Sequence,PBM E-score of 8-mer
1,CTTACTGA,-0.18623 ± 0.00018
2,ATCTACAC,0.148 ± 0.017
3,CCCGATAG,-0.103 ± 0.00011
4,ACTTTGTA,-0.104 ± 0.0071
5,CGGCCTAC,-0.102 ± 0.011
6,CAATTCCA,-0.0184 ± 0.047
7,CCCCTACC,-0.113 ± 0.031
8,ACAAAAAG,0.0471 ± 0.034
9,GAAGTAGA,-0.117 ± 0.031
10,ACAAGCAT,0.0613 ± 0.017
11,ATGCTGAC,-0.164 ± 0.06
12,CGATGCTC,0.0216 ± 0.0096
13,TCACTGCA,0.223 ± 0.032
14,TAAACGGA,-0.179 ± 0.033
15,AGCCACAG,-0.0197 ± 0.024
16,CGATACGA,-0.0502 ± 0.055
17,ACTTTTAT,-0.0835 ± 0.068
18,AATAAGAT,-0.225 ± 0.022
19,TAGCGTGA,0.342 ± 0.012
20,TGGGTACA,-0.255 ± 0.079
21,ATCATTTG,-0.078 ± 0.0047
22,GGGTAATA,-0.228 ± 0.046

# Reference: the supplement of paper PMC4166925
